Reference: the supplement of paper PMC12217912
The other results are listed elsewhere or left out. The full chains were built here from the parent and the listed change. Inactive controls read about 0.05.

B1: TEV protease; numbered along this chain (parent)
chain: MGESLFKGPRDYNPISSSICHLTNESDGHTTSLYGIGFGPFIITNKHLFRRNNGTLVVQSLHGVFKVKDTTTLQQHLVDGRDMIIIRMPKDFPPFPQKLKFREPQREERICLVTTNFQTKSMSSMVSDTSCTFPSGDGIFWKHWIQTKDGQCGSPLVSTRDGFIVGIHSASNFTNTNNYFTSVPKNFMELLTNQEAQQWVSGWRLNADSVLWGGHKVFMVKPEEPFQPVKEATQL

Variants of: B1
Test: raw area under fraction-flipped curve 0-4 h after induction (AUC4h, not background-subtracted), DNA-recorder readout of cleavage of the substrate (dimensionless); higher = more cleavage of the substrate by the protease variant
Details: temperature: 34 °C; time window: 0-4 h after rhamnose induction
Procedure: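 In vivo DNA recorder in E. coli TOP10(DE3) ΔrhaA at 34 °C. Each TEVp single-site mutant (parent TEVp 0) is paired with a single-site variant of the 7-mer TEVs (canonical ENLYFQ|S). The substrate sits between flexible linkers in a Bxb1-sfGFP-TEVs-SsrA fusion, so cleavage stabilises Bxb1 and speeds flipping of a recombination array, read by NGS. The value is the raw area under the fraction-flipped curve over 0-4 h after rhamnose induction (AUC4h), with ≥20 reads per time point. It is not background-subtracted; inactive controls average about 0.047.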
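Further: Bxb1 expression induced with 0.2% (w/v) L-rhamnose at OD600 near 0.5, cultures sampled hourly, flipped fraction per protease–substrate barcode pair counted by paired-end Illumina sequencing.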

Variant | area with substrate ENLYFCS | area with substrate ENLYFDS | area with substrate ENLYFFS | area with substrate ENLYFIS | area with substrate ENLYFKS | area with substrate ENLYFMS | area with substrate ENLYFNS | area with substrate ENLYFPS | area with substrate ENLYFSS | area with substrate ENLYFTS | area with substrate ENLYFVS | area with substrate ENLYFES | area with substrate ENLYFHS | area with substrate ENLYFRS | area with substrate ENLYFWS | area with substrate ENLYFYS | area with substrate ENLYFGS | area with substrate ENLYFLS
F41K | 0.05 | 0.065 | 0.0505 | 0.0438 | 0.0628 | 0.04 | 0.0483 | 0.0481 | 0.0483 | 0.063 | 0.0475 | – | – | – | – | – | – | –
F41C | 0.0673 | 0.0562 | 0.0643 | 0.0577 | 0.0616 | 0.0553 | – | 0.0557 | 0.0415 | 0.0585 | – | 0.0899 | 0.0684 | 0.0774 | 0.0573 | 0.052 | – | –
K148S | 0.0754 | 0.0527 | – | 0.0635 | – | – | 0.059 | – | – | – | – | 0.0596 | 0.0574 | – | – | – | 0.059 | 0.0229
E189H | 0.0509 | – | 0.0862 | 0.0595 | – | 0.07 | 0.0664 | 0.059 | 0.0614 | – | – | 0.0622 | 0.0884 | 0.0629 | – | 0.0557 | – | –
S4F | 0.0664 | 0.0456 | 0.0668 | 0.0611 | 0.0639 | 0.0868 | 0.0965 | 0.0585 | 0.0436 | 0.0811 | 0.0545 | 0.0763 | 0.0703 | 0.0638 | 0.0684 | – | – | –
F92P | 0.0468 | 0.0428 | 0.0727 | 0.0502 | 0.0573 | 0.0599 | 0.0581 | 0.0793 | – | 0.0533 | 0.0515 | – | 0.0474 | – | 0.048 | – | – | –
T71D | – | 0.0542 | 0.0905 | – | – | 0.0613 | – | 0.0661 | – | – | – | 0.0605 | – | 0.043 | – | – | 0.0663 | –
K66C | – | 0.0047 | 0.0683 | 0.0518 | 0.0543 | – | 0.0491 | 0.0608 | – | 0.0597 | – | – | – | – | 0.0557 | 0.0543 | – | 0.0489
F173G | 0.0739 | – | – | 0.0516 | 0.059 | – | 0.063 | – | – | – | 0.0322 | 0.0593 | – | 0.0691 | 0.0602 | 0.0542 | – | –
L61Q | 0.0552 | 0.0227 | 0.0671 | 0.0484 | 0.0689 | 0.0625 | 0.0634 | 0.043 | – | 0.0579 | 0.0598 | 0.0592 | – | – | 0.0687 | 0.0473 | – | –
L61S | 0.0716 | 0.0414 | 0.0495 | 0.054 | – | 0.0589 | – | – | 0.0652 | – | – | – | – | 0.063 | – | – | – | 0.0527
F133T | 0.0498 | – | 0.072 | 0.0575 | – | 0.0727 | 0.0578 | 0.0579 | – | 0.072 | – | 0.073 | – | – | – | – | – | –
T119P | 0.0613 | – | 0.0746 | 0.0588 | – | 0.0703 | 0.0611 | – | – | – | 0.0638 | – | 0.0506 | – | – | – | – | 0.0409
G80F | 0.0547 | – | – | 0.049 | – | – | 0.069 | 0.0444 | 0.0703 | 0.055 | – | 0.0623 | – | 0.0739 | 0.0512 | 0.0782 | – | 0.0546
M122D | 0.0576 | 0.0622 | 0.0726 | 0.0606 | – | 0.0842 | 0.0718 | 0.0533 | 0.0625 | 0.0606 | – | 0.0719 | 0.0546 | 0.0715 | 0.0645 | – | 0.0635 | 0.0662
F49S | 0.0498 | 0.0568 | 0.0656 | 0.0384 | 0.0507 | 0.0553 | 0.0666 | 0.0522 | 0.0494 | – | – | 0.0596 | – | 0.0569 | – | 0.0464 | – | –
